Hit rate of the full screen: of about 45,000 compounds, about 65 (0.1%) were called active. The call rests on the fitted dose curve; in most records, active means well fitted activation curve with a large enough effect; inconclusive means small, poorly fitted or top-dose-only effect; inactive means no such curve, though single readings can be large or run the other way. This is one part of the list.

For the assay, the target named is Galactocerebrosidase (Homo sapiens) (UniProt P54803). The assay can be described thus: A Novel Cell-Based Assay to Identify Small Molecules for B -Galactocerebrosidase. Further: 0% is about no effect; nearly all actives have a fitted effect of over 65% in size. To be noted: 145M-Twi-hGALC-G270D cells (Twitcher mouse brain line with human GALC G270D), HMU-beta-Gal fluorescence, 48 h; series mostly up to 57.5 µM; activation: at the top concentration. The method in brief: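 Mutant human GALC (G270D), stably expressed in a Twitcher mouse brain cell line lacking endogenous GALC, is measured in live-treated cells via 6-hexadecanoylamino-4-methylumbelliferyl-β-galactoside hydrolysis (0.1 mM final, pH 5.2) with fluorescent detection.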
UniProt P54803, sequence (P54803 whole entry, looked up): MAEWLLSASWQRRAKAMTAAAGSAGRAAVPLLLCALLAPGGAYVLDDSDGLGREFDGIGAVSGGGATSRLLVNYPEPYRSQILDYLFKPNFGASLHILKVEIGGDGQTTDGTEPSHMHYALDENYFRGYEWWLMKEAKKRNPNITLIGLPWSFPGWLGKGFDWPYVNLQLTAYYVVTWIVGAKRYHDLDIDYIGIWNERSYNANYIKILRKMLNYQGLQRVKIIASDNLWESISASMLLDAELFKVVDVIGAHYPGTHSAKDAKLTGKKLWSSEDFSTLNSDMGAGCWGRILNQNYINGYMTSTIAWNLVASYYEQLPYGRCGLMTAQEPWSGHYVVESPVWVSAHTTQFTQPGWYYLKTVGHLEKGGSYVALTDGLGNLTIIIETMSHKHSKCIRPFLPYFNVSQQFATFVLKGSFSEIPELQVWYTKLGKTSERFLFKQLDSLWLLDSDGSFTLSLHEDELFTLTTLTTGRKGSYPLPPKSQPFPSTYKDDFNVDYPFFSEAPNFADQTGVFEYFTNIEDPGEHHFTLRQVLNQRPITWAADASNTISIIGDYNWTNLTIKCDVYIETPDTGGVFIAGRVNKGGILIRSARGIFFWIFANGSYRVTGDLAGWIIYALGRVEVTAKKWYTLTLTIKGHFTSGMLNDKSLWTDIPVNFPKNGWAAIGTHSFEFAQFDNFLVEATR
Turning to `Cc1ccc(OCC(=O)NCC2(N3CCN(C)CC3)CCCCC2)cc1C`, the “activation” value was inactive: -11.7%.
On to `CCCCOc1ccc(-c2nonc2NC(=O)c2ccco2)cc1`, for which the “activation” value was inactive: -15.7%.
The figure for `COc1ccc(NC(=O)CCNS(=O)(=O)c2cccc3nonc23)cc1` is inactive: -7.66%; for `CCCC(=O)N1c2ncnn2C2(CCCCC2)[C@@H]2CCCC[C@@H]21` it is inactive: -12.9%.
The figure for `COC(=O)c1scc(-c2ccc(C)cc2)c1S(=O)(=O)Nc1cccc(C(F)(F)F)c1` is inactive: -11.1%; for `CCn1cc(C(=O)OCC(=O)Nc2cc(C)cc(C)c2)c(=O)c2ccc(C)nc21` it is inactive: -10.8%.
The figure for `COc1ccc(CCNC(=O)c2cc(-c3ccccc3)nc3ccccc23)cc1OC` is inactive: -29.1%; for `CCC(=O)N1CCc2cc(S(=O)(=O)NCCC(=O)Nc3ccc(OC)c(Cl)c3)ccc21` it is inactive: -12.4%.
Turning to `CCOc1ccc(CC(=O)Nc2nnc3n2CCS3)cc1`, the “activation” value is inactive: -7.05%.
The figure for `CC(C)c1nnc(N2C(=O)c3oc4ccccc4c(=O)c3C2c2cccc(O)c2)s1` (stereo not drawn) is inactive: -12.9%; for `CCc1nnc2c(NCc3ccccc3OC)nc3ccccc3n12` it is inactive: 0.411%; for `O=C(CSc1cn(CC(=O)N2CCCCCC2)c2ccccc12)Nc1ccccc1F` it is inactive: -5.57%.
Consider `O=C(CSc1nc2ccccc2c(=O)n1CCC(=O)NC1CCCCC1)Nc1ccccc1Cl`, for which the “activation” value was inactive: -18.7%.
Take `COC(=O)c1sc2cccc(F)c2c1S(=O)(=O)Nc1cc(OC)cc(OC)c1`: the “activation” value is inactive: -20.9%.
Consider `C[C@@H](O)[C@H]1C(=O)N2C(C(=O)O)=C(S[C@@H]3CN[C@H](CNS(N)(=O)=O)C3)[C@H](C)[C@H]12`, for which the “activation” value is inactive: -10.4%.
For `Cc1nn(CCCC(=O)NCc2ccccc2)c(=O)c2nn(-c3ccccc3)c(C)c12`, the “activation” value is inactive: -17.4%.
The figure for `Cc1cc2c(cc1S(=O)(=O)N1CCC(C)CC1)OCC(=O)N2` is inactive: -18.3%; for `O=C(COc1ccccc1)Nc1ccc(S(=O)(=O)N(Cc2ccccc2)c2ccccc2)cc1` it is inactive: -20.3%.
Regarding `Cc1c(C(=O)NCc2ccc(N(C)C)cc2)oc2c1-c1nn(Cc3cccc(Cl)c3)cc1CC2`, the “activation” value is inactive: -21.1%.
The value for `COC(=O)CNC(=O)C(Cc1ccccc1)NS(=O)(=O)c1ccc2c(c1)c(=O)n(C)c(=O)n2C` (stereo not drawn) was inactive: -2.62%; that for `COCCN1Cc2cccc(C(=O)Nc3ccc(C)cc3C)c2C1=O` was inactive: -8.84%; that for `CCN(C(=O)C1CCN(S(=O)(=O)c2ccc3c(c2)CCCN3C(=O)C2CCC2)CC1)c1cccc(C)c1` was inactive: -7.71%.
The value for `Cc1ccc(NC(=O)Cn2c(=O)n(CCCCCC(=O)NCc3ccc(F)cc3)c(=O)c3sccc32)c(C)c1` was inactive: 0.38%; that for `Cc1c(Cl)cccc1NC(=O)c1cnc2sc(N3CCCC3)nn2c1=O` was inactive: -5.05%; that for `Cc1ccc(CNC(=O)c2ccc3c(c2)N(Cc2ccccc2F)C(=O)c2ccccc2S3(=O)=O)cc1` was inactive: -14%.
The value for `O=S(=O)(c1ccc2ccccc2c1)n1nc(-c2ccco2)nc1NCc1cccc(Cl)c1` was inactive: -16.5%; that for `COc1cccc(CNC(=O)c2cnc(N3CCCC3)nc2C)c1` was inactive: -5.69%.
Consider `COc1ccc(S(=O)(=O)c2cn(C)c3cc(N4CCCC4)c(F)cc3c2=O)cc1`, for which the “activation” value is inactive: -8.57%.
The value for `Cc1cc(C)cc(NC(=O)Cn2c(=O)oc3cc(S(=O)(=O)N4CCCC4)ccc32)c1` was inactive: -7.34%.
Consider `COc1ccc(-c2nc(-c3ccccc3)c(-c3ccccc3)[nH]2)cc1Br`, for which the “activation” value is inactive: -12.7%.
The figure for `Oc1c(I)cc(Cl)c2cccnc12` is inactive: -9.19%.
The value for `Cc1ccc(-c2nnc(SCC(=O)N3CCc4ccccc43)o2)cc1` was inactive: -18%.
`CCCC12CN3CC(CCC)(CN(C1)C3c1c[nH]c3ccccc13)C2=O` (stereo not drawn): the “activation” value was inactive: -15.9%.
For `CCOc1ccc(CCNC(=O)Cn2nnc(-c3ccc(OC)c(OC)c3)n2)cc1OCC`, the “activation” value was inactive: -24.3%.
The figure for `CN1CCN(C(CNC(=O)C(=O)Nc2ccc(F)cc2F)c2ccc3c(c2)OCO3)CC1` (stereo not drawn) is inactive: -11.2%; for `CC(C)Cn1cnc2c1c(=O)n(C)c(=O)n2C` it is inactive: -29.2%.
The value for `CC(C)Oc1ccc(CNS(=O)(=O)c2cnc(N)nc2)cc1` was inactive: 1.83%; that for `CCOc1cc(CNCCSc2nnnn2-c2ccccc2)cc(Cl)c1OC` was inactive: -7.14%; that for `O=C(CN1C(=O)C2(SCC(=O)N2c2ccccc2)c2ccccc21)NCc1ccccc1Cl` (stereo not drawn) was inactive: -25.7%.
As for `O=C(NC1CCCCC1)c1ccc2c(c1)N(Cc1ccccc1)C(=O)c1ccccc1S2`, the “activation” value is inactive: -13.3%.
The figure for `CSc1nc(-c2ccc(F)cc2)nc2c1Cc1c(CO)cnc(C)c1O2` is inactive: -14.3%; for `CCCCNc1nc(Oc2ccc(=O)n(C)n2)nc(N(C)C)n1` it is inactive: -9.31%.
The value for `CCCc1nn2c(=O)cc(COC(=O)c3ccc(NC(=O)C(C)Oc4ccccc4)cc3)nc2s1` (stereo not drawn) was inactive: -6.74%.
`COc1cc(NC(=O)c2nnn(CC(=O)Nc3ccccc3)c2N)cc(OC)c1`: the “activation” value is inactive: -0.113%.
The value for `Cc1ccc2nc(-c3ccc(NC(=O)COc4c(C)ccc(C)c4C)cc3)sc2c1` was inactive: -14.7%; that for `COc1ccccc1-c1noc(CSc2nc3ccc(C)cc3[nH]2)n1` was inactive: -16.2%; that for `O=C(CSc1cn(CC(=O)N2CCCCC2)c2ccccc12)Nc1ccccc1F` was inactive: -6.03%.
For the compound `COc1cc(NC(=O)CCS(=O)(=O)c2nc(-c3cccs3)cc(C(F)(F)F)n2)cc(OC)c1OC`, the “activation” value is inactive: -22.3%.
Take `COc1ccc(C(=O)c2cn(Cc3ccc(C)cc3)c3cc4c(cc3c2=O)OCO4)cc1`: the “activation” value was inactive: -17.6%.
The figure for `CCOc1ccccc1NC(=O)CSc1nccn1-c1ccc(Cl)cc1` is inactive: 1.15%.
The figure for `Cc1c(Cl)cccc1NC(=O)CCn1c(=O)c2cccn2c2ccccc21` is inactive: -10.5%; for `CC(CNC(=O)C1CCN(Cc2cc3ccccc3n2Cc2ccccc2)CC1)c1ccccc1` (stereo not drawn) it is inactive: -4.82%; for `Cc1ccc2c(CC(=O)Nc3ccccc3C(F)(F)F)coc2c1C` it is inactive: -22.6%.
The figure for `COc1ccc(Cl)cc1NC(=O)c1cc2c(s1)-c1ccccc1OC2` is inactive: -9.32%; for `CCc1ccc(OC(C)C(=O)Nc2c(C(=O)c3ccccc3)oc3ccccc23)cc1` (stereo not drawn) it is inactive: -14.8%.
In the case of `COCCNC(=O)CCc1nc2cccnc2n1Cc1ccc(OC)cc1`, the “activation” value was inactive: -14.7%.
The figure for `COc1cccc(C2C(C(=O)Nc3ccccc3)=C(C)Nc3nc(-c4ccccc4)nn32)c1` (stereo not drawn) is inactive: 1.17%; for `COc1ccc(OC)c(NC(=O)CSc2cn(CC(=O)N3CCOCC3)c3ccccc23)c1` it is inactive: -10.2%; for `CS(=O)(=O)N(CC(=O)NCCSc1ccccc1)c1cc(C(F)(F)F)ccc1Cl` it is inactive: -0.41%.
As to `Oc1c(Br)cc(Br)cc1-c1nc2ccccc2s1`, the “activation” value is inactive: 10.9%.
The figure for `COc1ccc(-c2noc(-c3ccc(NC4CCCC4)c([N+](=O)[O-])c3)n2)cc1` is inactive: -24.1%.
The value for `CCCN(CCC)C(=O)C1CCCN(S(=O)(=O)c2ccc3c(c2)oc(=O)n3C)C1` (stereo not drawn) was inactive: -3.7%.
The figure for `Cc1ccc(-c2nc(CS(=O)CC(=O)N3CCN(c4ccccc4)CC3)c(C)o2)cc1` (stereo not drawn) is inactive: -16.5%.

These data come from PubChem BioAssay AID1159614 (National Center for Advancing Translational Sciences (NCATS), 2016).
